# Results reported in PubChem BioAssay AID1159614 (National Center for Advancing Translational Sciences (NCATS), 2016).
# The campaign covered roughly 45,000 compounds. About 65 (0.1%) were called active. The call rests on the fitted dose curve; in most records, active means well fitted activation curve with a large enough effect; inconclusive means small, poorly fitted or top-dose-only effect; inactive means no such curve, though single readings can be large or run the other way. This is one part of the list.
# Molecular target: Galactocerebrosidase (Homo sapiens) (UniProt P54803)
# Sequence of UniProt P54803 (P54803 whole entry, looked up): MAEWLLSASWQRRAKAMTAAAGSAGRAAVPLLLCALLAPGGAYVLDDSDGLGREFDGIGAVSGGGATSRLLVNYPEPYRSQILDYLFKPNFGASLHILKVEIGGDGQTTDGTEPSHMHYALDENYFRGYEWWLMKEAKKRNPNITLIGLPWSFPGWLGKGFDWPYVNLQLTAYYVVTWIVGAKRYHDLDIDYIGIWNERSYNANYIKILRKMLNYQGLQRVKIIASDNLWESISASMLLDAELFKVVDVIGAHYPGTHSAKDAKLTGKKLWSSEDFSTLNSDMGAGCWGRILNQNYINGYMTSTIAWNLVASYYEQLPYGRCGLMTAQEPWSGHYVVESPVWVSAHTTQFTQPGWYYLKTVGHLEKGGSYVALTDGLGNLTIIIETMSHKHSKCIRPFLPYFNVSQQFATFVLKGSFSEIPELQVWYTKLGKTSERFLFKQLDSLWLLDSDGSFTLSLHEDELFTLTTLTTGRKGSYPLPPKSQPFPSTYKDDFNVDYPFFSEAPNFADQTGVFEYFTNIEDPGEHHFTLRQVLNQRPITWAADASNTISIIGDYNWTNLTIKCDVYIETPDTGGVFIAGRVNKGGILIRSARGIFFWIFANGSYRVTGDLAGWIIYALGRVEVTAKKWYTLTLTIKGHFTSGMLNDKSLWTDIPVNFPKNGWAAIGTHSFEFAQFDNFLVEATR
# Experiment: A Novel Cell-Based Assay to Identify Small Molecules for B -Galactocerebrosidase; further: 0% is about no effect; nearly all actives have a fitted effect of over 65% in size
# Details: 145M-Twi-hGALC-G270D cells (Twitcher mouse brain line with human GALC G270D), HMU-beta-Gal fluorescence, 48 h; series mostly up to 57.5 µM; activation: at the top concentration
# Outline: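 Live 145M-Twi cells (Twitcher mouse brain-derived, GALC-null) stably expressing human GALC-G270D, with a wild-type GALC line, were compound-treated. Residual GALC activity was then read as fluorescence from 0.1 mM final HMU-β-gal at pH 5.2; higher signal means activation.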
row,SMILES,activation
1,CC(NC(=O)Cc1ccc(NC(=O)N2CCSc3ncccc32)cc1)c1ccccc1 (stereo unspecified),inactive: -13.4%
2,Cc1cc(-c2ccc(S(=O)(=O)Nc3ccccc3F)s2)on1,inactive: 11.9%
3,Cn1c(-n2cccc2)c(-c2c(-c3ccccc3)[nH]c3c2c(=O)[nH]c(=O)n3C)c(=O)[nH]c1=O,inactive: -7.18%
4,Cc1ccc2c(c1)N(CC(=O)NCCc1ccc(Cl)cc1)C(=O)c1cccnc1O2,inactive: 0.488%
5,O=C(Nc1cccc(-c2cn3cccnc3n2)c1)c1cc(Br)ccc1Cl,inactive: -16.9%
6,O=C(CN1C(=O)COc2ccc(S(=O)(=O)NC3CCCC3)cc21)Nc1ccc(Cl)cc1,inactive: -5.58%
7,CCOC(=O)c1[nH]c(C)c(C(=O)NC(CC)Cc2ccccc2)c1C (stereo unspecified),inactive: -5.3%
8,COc1ccc(C(=O)Nc2cc(C)c(O)c(-c3nc4ccccc4s3)c2)cc1OC,inactive: -20.9%
9,CC(=O)Nc1ccc(NC(=O)CSc2nc3ccccc3nc2N2CCCCC2)cc1,inactive: -9.55%
10,CCN1CCN(c2ncnc3c2cnn3-c2ccc(C)c(C)c2)CC1,inactive: -14.3%
11,Cc1ccc(C)c(NC(=O)Cn2c(=O)n(CC3CCCO3)c(=O)c3ccccc32)c1 (stereo unspecified),inactive: -16.6%
12,Cc1oc(=O)oc1CN1CCN(c2cc3c(cc2F)c(=O)c(C(=O)O)c2n3C(C)S2)CC1 (stereo unspecified),inactive: -8.27%
13,CCOc1ccc(CNC(=O)c2ccc(CS(=O)Cc3ccc(Cl)cc3)o2)cc1 (stereo unspecified),inactive: -8.65%
14,CCN(Cc1ccccc1)C(=O)CN1C(=O)COc2ccc(S(=O)(=O)NC3CCCC3)cc21,inactive: 3.82%
15,Cc1ccc(-c2nnn3c2nc(NCC(C)c2ccccc2)c2ccccc23)cc1 (stereo unspecified),inactive: -6.92%
16,COc1cccc(CNC(=O)c2ccc3c(c2)nc2n3CCOC2)c1,inactive: -6.35%
17,CCc1cccc(NC(c2ccccc2)c2nnc(-c3ccccc3F)o2)c1 (stereo unspecified),inactive: -11.9%
18,CCc1ccccc1Nc1ncnc2c1cnn2-c1ccc(C)cc1C,inactive: -6.3%
19,COc1ccc(C(=O)Nc2nnc(S(=O)(=O)N3CCN(c4ccc(F)cc4)CC3)s2)cc1,inactive: -13.6%
20,COc1ccc(C(=O)Nc2nnc(S(=O)(=O)N(C)c3ccc(C)cc3)s2)cc1,inactive: -6.6%
21,COc1cccc(CNC(=O)c2cc3c(=O)n(Cc4cccnc4)ccc3nc2C)c1,inactive: -16.5%

row,SMILES,activation
1,Cc1ccc(NC(=O)CSc2nc3c(sc4ccccc43)c(=O)n2CCCC(=O)NC2CCCC2)cc1C,inactive: 2.49%
2,CC(C)COc1ccc(C(=O)Nc2nnc(S(=O)(=O)N(C)Cc3ccco3)s2)cc1,inactive: -18%
3,CCOC(=O)c1c(C)[nH]c(C)c1S(=O)(=O)N1CCCC(C(=O)NCc2ccccc2Cl)C1 (stereo unspecified),inactive: 2.24%
4,COc1ccccc1CNC(=O)CN(c1ccccc1OC)S(C)(=O)=O,inactive: 3.83%
5,CC(=O)Nc1ccc(OCC(O)CNC(C)C)cc1 (stereo unspecified),inactive: -7.2%
6,Cc1ccc2c(c1)Cc1c(nc(-c3ccc(F)cc3)nc1SCC(=O)N1CCCCC1)O2,inactive: -21.2%
7,CCC(C)NC(=O)Cn1c(=O)n(-c2ccc(OC)c(OC)c2)c(=O)c2ccccc21 (stereo unspecified),inactive: -13%
8,COc1ccc2cc(CCNS(=O)(=O)c3ccc(C)cc3)c(=O)[nH]c2c1,inactive: -8.57%
9,CCOC(=O)C1CCN(C(=O)c2c(C)nn(-c3ccc(F)cc3)c2-n2cccc2)CC1,inactive: -21.6%
10,Cc1ccc(Nc2c(-c3cccnc3)nc3ccc(Cl)cn23)cc1,inactive: -10.9%
11,Cc1ccc(Cl)cc1N1CCN(S(=O)(=O)c2ccc3c(c2)C(C(C)C)C(=O)N3)CC1 (stereo unspecified),inactive: -28.3%
12,CC(C)c1ccc(NC(=O)C2CCCN2S(=O)(=O)c2ccc3nc(-c4ccccc4)[nH]c3c2)cc1 (stereo unspecified),inactive: -7.57%
13,Cc1ccc(-n2ncc3c(N4CCN(Cc5ccccc5)CC4)ncnc32)cc1Cl,inactive: -16.8%
14,CCc1cc(=O)[nH]c(SCc2nc(-c3cccc(Cl)c3)no2)n1,inactive: -7.68%
15,O=C(Nc1ccc(Cl)cc1)c1ccc(-n2cnnc2)cc1,inactive: -7.43%
16,O=C(COCc1cc(-c2cccs2)on1)NCc1ccc(F)cc1,inactive: -10.5%
17,Cc1cccc(OCC(=O)Nc2ccc3c(c2)nc(CN2CCCCC2)n3C)c1,inactive: -4.54%
18,O=S(=O)(c1ccc(-c2csc(=Nc3ccc(F)cc3)n2CCCCCCO)cc1)N1CCCC1,inactive: -13.2%
19,CCCc1nnc(NC(=O)Cc2coc3c(C)c(C)ccc23)s1,inactive: 12.6%
20,COc1cc(NC(=O)Cn2ccc3ccccc3c2=O)cc(OC)c1OC,inactive: -11.1%
21,COc1ccc(C(=O)N(Cc2sccc2C)C2CCS(=O)(=O)C2)cc1 (stereo unspecified),inactive: -9.39%

row,SMILES,activation
1,CCOCCCn1c(SCC(=O)Nc2ccc(CC)cc2)nc2ccccc2c1=O,inactive: -12.9%
2,Cc1nc(C)c(-c2ccc(SCC(=O)Nc3cccc(C)c3C)nn2)s1,inactive: -13.8%
3,Cn1c(C(=O)NCCc2ccccc2)cc2sc(Cl)cc21,inactive: -16.2%
4,Cc1ccc(CNC(=O)CSc2nc3ccsc3c(=O)n2-c2ccc(Br)cc2)cc1,inactive: -3.83%
5,CCOc1ccc(CNC(=O)CN2N=C(c3ccccc3)CCC2=O)cc1OC,inactive: -8.43%
6,CCc1ccc(C2C(C(=O)Nc3ccccc3OC)=C(C)Nc3nc(SCc4ccccc4)nn32)cc1 (stereo unspecified),inactive: -5.4%
7,Cc1ccc(-n2ncc(C(=O)NCCN3CCN(C)CC3)c2C2CCN(C(=O)OC(C)(C)C)CC2)cc1,inactive: -3.74%
8,COc1cccc(-c2oc3ccc(C)cc3c(=O)c2O)c1,inactive: -7.97%
9,CCOc1ccc(Nc2nc(C)c(NC(=O)c3cccc(F)c3)c(Nc3ccc(OCC)cc3)n2)cc1,inactive: -22.9%
10,Cc1noc(C)c1S(=O)(=O)N(CC(=O)NCCc1ccc(Cl)cc1)c1ccc(C(C)C)cc1,inactive: -18%
11,CCC1Oc2ccc(C)cc2N(CC(=O)N2CCN(c3ccccc3OC)CC2)C1=O (stereo unspecified),inactive: 3.82%
12,Cc1ccccc1C(=O)NNc1ncnc2c1cnn2-c1cccc(Cl)c1,inactive: -16.6%
13,CCc1ccc(NC(=O)C2CCN(S(=O)(=O)c3cccc(-c4noc(C)n4)c3)CC2)cc1,inactive: -10.2%
14,CCCc1ccc(NC(=O)C2CCCN(c3cnccn3)C2)cc1 (stereo unspecified),inactive: -8.55%
15,Cc1ccc(Cn2c(CNC(=O)c3ccc(Cl)c([N+](=O)[O-])c3)nc3cccnc32)cc1,inactive: -3.15%
16,CCOC(=O)c1cc(S(=O)(=O)Nc2c(C)cc(C)cc2C)[nH]n1,inactive: 1.41%
17,Cc1ccc2nc(-c3ccc(NC(=O)COc4ccccc4C(C)(C)C)cc3)sc2c1,inactive: -10.8%
18,C[C@@H]1O[C@@H](OC[C@H]2O[C@@H](Oc3c(-c4ccc(O)c(O)c4)oc4cc(O)cc(O)c4c3=O)[C@H](O)[C@@H](O)[C@@H]2O)[C@H](O)[C@H](O)[C@H]1O,inactive: -6.87%
19,O=C(Nc1ccccc1Br)c1cc(S(=O)(=O)NC2CCCCC2)ccc1F,inactive: -15.1%
